Test results from PubChem BioAssay AID1745853 (National Center for Advancing Translational Sciences (NCATS), 2022).
The list shows a part of the results. These are further read-outs of the screen, such as a control signal, another cell line or another target. No call is given for them.

What was measured:
Assay in all cases: Primary Screen for Target Class Profiling of Small Molecule Inhibitors of Methyltransferases
[1] = target: Glycine N-methyltransferase (Homo sapiens) (UniProt Q14749); settings: purified enzyme, MTase-Glo SAH luminescence; measured here: GNMT inhibition; at 40 µM; stronger effect = lower value
In short: (§1)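 Each enzyme was reacted with SAM and its substrate, with compounds tested once at 40 uM; SAH formed was read by MTase-Glo luminescence.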

[2] = target: Guanidinoacetate N-methyltransferase (Homo sapiens) (UniProt Q14353); settings: purified enzyme, MTase-Glo SAH luminescence; measured here: GAMT inhibition; at 40 µM; stronger effect = lower value
In short: as §1

[3] = target: Histamine N-methyltransferase (Homo sapiens) (UniProt P50135); settings: purified enzyme, MTase-Glo SAH luminescence; measured here: HNMT inhibition; at 40 µM; stronger effect = lower value
In short: as §1

[4] = target: Nicotinamide N-methyltransferase (Homo sapiens) (UniProt P40261); settings: purified enzyme, MTase-Glo SAH luminescence; measured here: NNMT inhibition; at 40 µM; stronger effect = lower value
In short: as §1

[5] = target: Phenylethanolamine N-methyltransferase (Homo sapiens) (UniProt P11086); settings: purified enzyme, MTase-Glo SAH luminescence; measured here: PNMT inhibition; at 40 µM; stronger effect = lower value
In short: as §1
On the % scale 0 is the no-effect control and ±100 the full control effect.

| Compound | activity change, negative = inhibition [1] [%] | activity change, negative = inhibition [2] [%] | activity change, negative = inhibition [3] [%] | activity change, negative = inhibition [4] [%] | activity change, negative = inhibition [5] [%] |
| --- | --- | --- | --- | --- | --- |
| O=C1NC(=NC2CCCCC2)C2(CCCN([S+](=O)([O-])c3cccc(C(F)(F)F)c3)C2)N1c1cc(F)cc(F)c1 (stereo not given) | -4.41 | -2.59 | -0.701 | -13 | -2.04 |
| O=C(CCc1nnc2n(CCc3ccccc3)c(=O)c3ccccc3n12)NCCc1ccc(Cl)cc1 | -5.25 | -0.296 | 0.715 | 3.11 | -5.76 |
| COc1ccc2cc3n(c2c1)CC(C)(C(=O)NCC1CCCO1)N(Cc1cccc(Cl)c1)C3=O (stereo not given) | 2.95 | 0.557 | 3.8 | 9.86 | 1.63 |
| COc1ccc(C(=O)N[C@@H]2CCOC[C@H]2Oc2ccccn2)c(F)c1F | -0.912 | -3.03 | -0.709 | -4.33 | -2.13 |
| CC1(C(=O)NCc2ccc(Cl)cc2)Cn2c(ccc2-c2ccco2)C(=O)N1CCc1cccs1 (stereo not given) | -19.4 | -14 | -8.04 | -19.2 | -10.2 |
| CCc1c(CC(N)=O)c2cc(OCCCP(=O)(O)O)ccc2n1Cc1ccccc1 | 1.49 | 5.34 | 11.1 | -9.91 | 3.4 |
| CC1=NS(=O)(=O)N(C)C=C1C(=O)OCc1nc(C)no1 | -0.802 | -0.587 | 1.14 | -3.1 | -5.19 |
| Cc1ccc(NC(=O)CCc2nnc3n(Cc4ccccc4Cl)c(=O)c4ccccc4n23)cc1C | 3.75 | -2.24 | -1.94 | 4.46 | -7.96 |
| COCCCNC(=O)Cn1c(=O)oc2cc(S(=O)(=O)N3CC(C)CC(C)C3)ccc21 (stereo not given) | -1.76 | 0 | 8.76 | 17.6 | -0.092 |
| COc1cccc(CNc2nc3c(-c4ccc(Cl)cc4)nnn3c3ccccc23)c1 | -3.42 | 3.65 | -4.9 | 1.63 | -4.07 |
| CC(C)CCn1c(=O)c2ccc(C(=O)NC3CCCC3)cc2n2c(=O)n(CC(=O)Nc3ccccc3)nc12 | 2.98 | 0 | 5.16 | -2.28 | -4.33 |
| COc1ccc(-c2cc3n(n2)CC(C)(C(=O)NCc2ccccc2)N(Cc2ccccc2F)C3=O)cc1 (stereo not given) | 5.23 | 3.86 | 5.05 | 1.1 | 1.24 |
| COCCN(C)C[C@@H]1CN(C(=O)c2nc(-c3ccccc3)[nH]c2C)C[C@@H]1CO | -5.55 | -6.67 | -4.41 | -6.54 | -3.31 |
| O=C(CCc1nnc2n(Cc3ccccc3)c(=O)c3ccccc3n12)NCCc1ccc(Cl)cc1 | -9.13 | 5.34 | 4.59 | 7.05 | -1.28 |
| CC(C)CNC(=O)c1ccc2c(=O)n(CC(C)C)c3nn(CC(=O)NC(C)C)c(=O)n3c2c1 | 4.47 | 0.046 | 5.03 | 7.41 | 3.09 |
| CCOC(=O)c1cc2n(n1)CC(C)(C(=O)NC1CCC(C)CC1)N(c1ccc(NC(C)=O)cc1)C2=O (stereo not given) | -2.67 | 1.85 | -0.702 | -2.46 | -2.52 |
| Cc1cc(C)cc(N2C(=O)c3cc4sccc4n3CC2(C)C(=O)NC2CCCCC2C)c1 (stereo not given) | -6.51 | 5.94 | -4.22 | -2.71 | -3.59 |
| CC(C)n1c(=O)c2ccc(C(=O)NC3CCCC3)cc2n2c(=O)n(CC(=O)c3ccc(Cl)cc3)nc12 | -2.1 | -10.5 | 2.76 | -8.39 | -2.79 |
| CN(C)Cc1c(C(=O)NCCOc2ccc(C(=O)NO)cc2)oc2ccccc12 | 0.967 | 2.61 | -20.8 | -5.67 | 6.88 |
| CC(C)NCC(O)COc1ccc(COCCOC(C)C)cc1 (stereo not given) | -12.9 | -1.37 | -3.84 | -12.4 | -1.92 |
| COC(=O)c1cc2n(n1)CC(C)(C(=O)NC1CCCCCC1)N(Cc1ccc(C)cc1)C2=O (stereo not given) | -3.34 | 3.76 | 1.42 | -5.72 | -3.46 |
| CC1CCC(NC(=O)c2ccc3c(=O)nc4c(-c5cccc(F)c5)n[nH]n4c3c2)CC1 (stereo not given) | -11.8 | 5.57 | -4.28 | 1.46 | -2.42 |
| CC1(C)CC(=O)c2c(C(F)(F)F)nn(-c3ccc(C(N)=O)c(NC4CCC(OC(=O)CN)CC4)c3)c2C1 (stereo not given) | -12.2 | -17.2 | 5.41 | -56.4 | -7.01 |
| CCc1cc2c(cc3n2CC(C)(C(=O)NC2CCCCCC2)N(Cc2ccc(OC)cc2)C3=O)s1 (stereo not given) | -7.06 | 0.015 | -3.21 | -3.71 | -4.32 |
| O=C(O)CCc1cc2ccoc2cc1O[C@@H]1O[C@H](CO[C@@H]2OC[C@](O)(CO)[C@H]2O)[C@@H](O)[C@H](O)[C@H]1O | 0 | 7.61 | 8.72 | -6.11 | 3.09 |
| NCCCNc1ccc(Nc2nccc(Nc3cc(C4CC4)[nH]n3)n2)cc1 | -19.1 | -0.147 | -86.9 | -44.7 | -15.4 |
| O=C(Cn1c(=O)oc2cc(S(=O)(=O)N3CCCC3)ccc21)NCC1COc2ccccc2O1 (stereo not given) | -4.45 | 3.62 | -3.68 | -0.986 | -12.9 |
| COc1ccc2c(c1)CC(NS(=O)(=O)c1ccc(Cl)cc1)CO2 (stereo not given) | -9.66 | -1.99 | 0.066 | -4.28 | -2.62 |
